The series has as its system ATP. Description: switch fluorescence ratio, 500 uM ATP over buffer (Cy3 cluster intensity, sum of 5 cycles each) (fold (ratio)); higher = stronger signal-on switching upon ATP binding; sequences stand for … in TCGTCGGCAGCGTCAGATGTGTATAAGAGACAGTTTTTTTTTTTTTTTTTTTTTTTTT…TC. Conditions: aptamer strand: ATP DNA aptamer (quencher-CACCTGGGGGAGTATTGCGGAGGAAGG + anchor), 100 nM annealed; ATP concentration: 500 uM; one replicate. In outline:
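After annealing to 100 nM quencher-labelled ATP aptamer, Cy3-labelled switching-strand clusters on a modified Illumina MiSeq flow-cell were imaged in selection buffer. A second image followed after 15 min with 500 uM ATP at 22 °C, and five such buffer/ATP cycles were done, each separated by NaOH stripping and re-annealing. The fluorescence ratio, averaged per switch-domain sequence, is summed target-cycle over summed buffer-cycle Cy3 intensity per cluster, with clusters outside 100-1000 RFU excluded.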

Sequences with one replicate were seen in a single cluster, so their values are uncertain.
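Further: ATP exposure 15 min at 22 °C before imaging.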

As to ATGCTTTCAC, the switch fluorescence ratio is 1.03.
Consider AAAAGTACAA, for which the switch fluorescence ratio turned out to be 1.13.
For TGGTTACA the value was 0.982; for GGCATCGTGC, 0.983; for TTAATTATTA, 0.993.
Next, TTAGAGGTGA: 0.99; TAGGTTGCGG: 0.965.
Next, CTAGAAAATT: 1.02.
As to GGCGGCTACT, the switch fluorescence ratio stood at 1.01.
For TTTCCCTTGT the value was 1.11; for TAAGCTTCGT, 0.999.
ACTGACCATA: the switch fluorescence ratio amounted to 1.15.
On to AAGTCAGAG, for which the switch fluorescence ratio came out at 1.03.
As for GGCTGCTATT, the switch fluorescence ratio came to 1.01.
On to TTTTTAACAA, for which the switch fluorescence ratio was 1.03.
As to TCACGCTCTT, the switch fluorescence ratio is 0.999.
For GGTAGATGGC the value was 1.02; for GTTTAACCG, 0.983.
For TTGACACTAG the value was 0.978; for GCAACAAGTC, 1.05.
For ATAGCGTAAC the value was 1.1; for GCGGGTAGGG, 1.02; for TTCTTGGTAC, 1.08.
As to GGAGATGTCT, the switch fluorescence ratio stood at 0.987.
In the case of GAATTGTAAA, the switch fluorescence ratio is 0.997.
Turning to TCTTAAGAG, the switch fluorescence ratio was 0.986.
For TCATGGGACG the value was 0.969; for AAGCAAAGGA, 0.965.
GAATCGTCGG: the switch fluorescence ratio was determined as 1.05.
On to TCCGATTCAT, for which the switch fluorescence ratio was 1.24.
Next, AGGATGAGTA: 0.962; ATAGGCCGCG: 1.02.
Next, GCTTCCCCAC: 1.88; ATTCAGTCCG: 0.979; GCTCTACGAA: 1.06.
For GAGATTTGAT the value was 1.02; for TCCATAATTT, 0.974.
Regarding GTGCCAGCCT, the switch fluorescence ratio amounted to 1.05.
TTCACCGTCA: the switch fluorescence ratio worked out at 1.12.
Take CGGGTAGCCT: the switch fluorescence ratio worked out at 1.
For the sequence AGTCATCTAG, the switch fluorescence ratio amounted to 1.
For CACGAGATGG the value was 1.06; for GCGAAACAAT, 1.09.
Next, GGGATGAGCC: 1.06.
For TAAGAGTCAC the value was 1; for TTACGTGAAC, 1.21; for TTAATGGCCT, 1.01.
Regarding AGATGCCTCA, the switch fluorescence ratio turned out to be 1.01.
For AGGCAAAAGT the value was 1.04; for CGTTACAATC, 1.37; for TAGTGTGTAG, 0.977.
Next, CGTATGAAGT: 0.998.
For the sequence GTTTCCAAGA, the switch fluorescence ratio was found to be 1.11.
For CGTCTTGTC the value was 0.975.
Regarding CGTGACACAG, the switch fluorescence ratio is 0.972.
On to TTACTGGTT, for which the switch fluorescence ratio worked out at 1.01.
Next, GGCTCCCCGT: 1.14.
For GGTACGATTA the value was 1.08; for GGGCACGCTT, 1.15; for AAGGAGCTAG, 1.02.
For TGTTGGACAG the value was 0.98; for TCCTTTCAAC, 1.14.
For GGGGCACCGG, the switch fluorescence ratio was 0.994.
Next, TTGTTGCCTT: 0.932; ACTGTTCGCA: 1.04; GATTAGGATG: 0.993.
As to GTTTGGGGAC, the switch fluorescence ratio amounted to 1.01.
